About 2,200 (0.71%) of roughly 310,000 compounds showed an effect of 50% or more. The effect is printed as a negative number. Some of the results follow.

In this assay the target is human ether-à-go-go-related gene (hERG) potassium channel (human, UniProt Q12809). The assay can be described thus: primary screen, population patch clamp on CHO cells stably expressing hERG.
human ether-à-go-go-related gene (hERG) potassium channel, sequence (Q12809 whole entry, looked up): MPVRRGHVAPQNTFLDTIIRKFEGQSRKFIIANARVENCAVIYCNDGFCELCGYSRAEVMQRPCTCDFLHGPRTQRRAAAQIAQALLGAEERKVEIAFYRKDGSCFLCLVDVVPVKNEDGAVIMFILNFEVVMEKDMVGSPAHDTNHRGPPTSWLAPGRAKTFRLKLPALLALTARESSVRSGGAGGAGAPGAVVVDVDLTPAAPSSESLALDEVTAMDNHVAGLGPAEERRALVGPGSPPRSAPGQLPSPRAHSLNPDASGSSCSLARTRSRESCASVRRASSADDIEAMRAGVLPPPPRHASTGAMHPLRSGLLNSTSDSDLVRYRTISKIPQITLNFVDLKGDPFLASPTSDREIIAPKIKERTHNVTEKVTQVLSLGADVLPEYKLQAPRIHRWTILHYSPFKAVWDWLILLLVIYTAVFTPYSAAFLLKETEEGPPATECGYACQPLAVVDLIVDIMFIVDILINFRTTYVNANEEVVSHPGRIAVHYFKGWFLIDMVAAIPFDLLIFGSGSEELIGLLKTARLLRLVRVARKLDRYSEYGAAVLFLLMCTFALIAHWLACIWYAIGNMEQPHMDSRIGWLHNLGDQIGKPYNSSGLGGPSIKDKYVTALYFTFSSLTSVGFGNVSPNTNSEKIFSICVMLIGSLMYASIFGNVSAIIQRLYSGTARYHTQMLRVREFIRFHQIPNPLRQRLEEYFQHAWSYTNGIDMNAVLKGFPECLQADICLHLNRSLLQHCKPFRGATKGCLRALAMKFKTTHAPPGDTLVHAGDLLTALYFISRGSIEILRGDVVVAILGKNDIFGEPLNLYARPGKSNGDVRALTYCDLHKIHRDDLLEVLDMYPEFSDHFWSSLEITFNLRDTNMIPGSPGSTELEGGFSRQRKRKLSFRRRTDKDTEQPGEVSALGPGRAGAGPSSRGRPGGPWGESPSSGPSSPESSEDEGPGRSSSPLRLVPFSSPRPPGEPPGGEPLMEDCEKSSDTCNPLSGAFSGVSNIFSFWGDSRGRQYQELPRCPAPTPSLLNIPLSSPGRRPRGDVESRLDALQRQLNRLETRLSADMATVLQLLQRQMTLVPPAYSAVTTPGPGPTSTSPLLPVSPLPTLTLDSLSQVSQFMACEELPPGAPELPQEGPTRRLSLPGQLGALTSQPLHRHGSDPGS
On to `Cc1ccc(CNC(=O)CCS(=O)(=O)c2cccc3nonc23)cc1`, for which the “hERG current change (%, negative = inhibition) at 1uM” value stood at 8.61%.
Regarding `O=C(NCc1ccccc1F)C1CCCN1C(=O)Nc1ccc(F)cc1` (stereo not shown), the “hERG current change (%, negative = inhibition) at 1uM” value stood at 8.73%.
`CCCc1cc(=O)oc2cc(OCc3cc(OC)c(OC)c(OC)c3)c(Cl)cc12`: the “hERG current change (%, negative = inhibition) at 1uM” value is listed as 15.7%.
With `CC1=CC2=NC(=O)CC(C)(C(=O)N(CC(=O)NC3CCCC3)Cc3ccccc3)N2C=C1` (stereo not shown), the “hERG current change (%, negative = inhibition) at 1uM” value stood at 1.71%.
For `COc1cccc(C2Nc3cccc4cccc(c34)N2)c1`, the “hERG current change (%, negative = inhibition) at 1uM” value is reported as 2.68%.
In the case of `Cc1nnc(SCC(=O)NCc2ccccc2)n1-c1ccccc1`, the “hERG current change (%, negative = inhibition) at 1uM” value was determined as 20.7%.
As to `O=C1CSC(c2ccc([N+](=O)[O-])cc2)N1C1CCCCC1` (stereo not shown), the “hERG current change (%, negative = inhibition) at 1uM” value was -13%.
Next, `CN(C)c1ccc(/C=C(/NC(=O)c2ccccc2Cl)C(=O)NCCN2CCOCC2)cc1`: 9.12%.
As for `Fc1ccc(Nc2c(-c3ccco3)nc3ccccn23)cc1`, the “hERG current change (%, negative = inhibition) at 1uM” value is on record as -1.03%.
Regarding `O=C(COc1ccc(F)cc1Cl)Nc1nc(-c2ccccn2)cs1`, the “hERG current change (%, negative = inhibition) at 1uM” value came out at 9.91%.
With `COc1ccc(N(C(C)C(=O)Nc2cccnc2)S(C)(=O)=O)cc1` (stereo not shown), the “hERG current change (%, negative = inhibition) at 1uM” value is listed as 14.6%.
As to `Cc1ccc(S(=O)(=O)NCC(=O)OC(C(=O)c2ccccc2)c2ccccc2)cc1` (stereo not shown), the “hERG current change (%, negative = inhibition) at 1uM” value came out at 9.46%.
As to `CC(O)CNc1nc2ccccc2n1CC(=O)NCCc1ccc(Cl)cc1` (stereo not shown), the “hERG current change (%, negative = inhibition) at 1uM” value amounted to 7.42%.
On to `COc1cccc(N2CCN(C(=O)C3CCN(S(=O)(=O)c4cccs4)CC3)CC2)c1`, for which the “hERG current change (%, negative = inhibition) at 1uM” value is reported as 12.1%.
Next, `CN(C)CCN(C(=O)CCS(=O)(=O)c1ccccc1)c1nc2cc3c(cc2s1)OCO3.Cl`: 14.4%; `c1ccc(-c2nnc(-c3ccco3)o2)cc1`: 6.99%; `S=C(NCc1ccccc1)Nc1cccc(Cl)c1`: -1.34%.
Next, `COc1ccc(NC2CCN(C3CC(=O)N(c4ccc(F)c(Cl)c4)C3=O)CC2)cc1` (stereo not shown): -16.2%; `CCN(CC)CCn1c2ccccc2c2n[nH]c(=S)nc21`: 8.96%; `CC1=C(C#N)C(c2cccnc2)C2=C(N1)c1ccccc1C2=O` (stereo not shown): 12.1%.
Next, `N#C/C(=C/c1ccc(C(=O)O)cc1)C(=O)NCc1ccccc1`: -1.61%.
Regarding `O=C(Oc1cccc(C(=S)N2CCCCC2)c1)c1ccccc1`, the “hERG current change (%, negative = inhibition) at 1uM” value is on record as 12.1%.
In the case of `CCN(CC(=O)NCc1ccc(Cl)cc1)C(=O)CSCC(=O)Nc1ccc(C)cc1`, the “hERG current change (%, negative = inhibition) at 1uM” value is -22.6%.
Turning to `O=C1C=C(c2cccc(CO)c2)C[C@@H](c2ccc(F)cc2)C1`, the “hERG current change (%, negative = inhibition) at 1uM” value is -2.11%.
In the case of `Cn1c(-c2ccc(C(C)(C)C)cc2)n[nH]c1=S`, the “hERG current change (%, negative = inhibition) at 1uM” value stood at 11.7%.
Next, `NS(=O)(=O)c1cccc(-n2cnnn2)c1`: 4.15%.
Take `CCOc1cccc(N2C(=O)CC(n3cnc4ccccc43)C2=O)c1` (stereo not shown): the “hERG current change (%, negative = inhibition) at 1uM” value is listed as 11%.
Next, `Nc1nc(SCc2nnc(SCC(=O)O)n2-c2ccccc2)nc2sc3c(c12)CCCC3`: 2.72%; `Cc1cccc(/C=N/NC(=O)c2cccc([N+](=O)[O-])c2)n1`: 9.21%.
For `NC(=S)Nc1ccc2cn[nH]c2c1`, the “hERG current change (%, negative = inhibition) at 1uM” value is 10.1%.
In the case of `Cc1ccc(S(=O)(=O)Nc2nc(C)c(C)s2)cc1`, the “hERG current change (%, negative = inhibition) at 1uM” value is recorded as 9.1%.
For `COCCNC(=O)C1CC(c2ccc(C(F)(F)F)cc2)=NO1` (stereo not shown), the “hERG current change (%, negative = inhibition) at 1uM” value came out at 9.26%.
Next, `COc1ccc(CCNC(=O)CCC(=O)Nc2nnc(C(C)C)s2)cc1OC`: 6.11%; `Cc1cccc(C(=O)Nc2ccc(O)c3c(=O)cc(-c4ccccc4Cl)oc23)c1`: 6.44%; `Cc1ccccc1Nc1nc(N)nc(COC(=O)c2ccccc2)n1`: 21%.
Next, `COC(=O)C1=C(N)Oc2cc(C)oc(=O)c2C1c1cccnc1` (stereo not shown): -3.81%.
In the case of `CC(OC(=O)c1nn(C)c(=O)c2ccccc12)C(=O)NC1CCCCC1C` (stereo not shown), the “hERG current change (%, negative = inhibition) at 1uM” value is given as -0.613%.
`CCOCCSc1n[nH]c(=O)n1CCc1ccccc1`: the “hERG current change (%, negative = inhibition) at 1uM” value was found to be 12.3%.
In the case of `COc1ccc(C)cc1NC(=O)CN1CCN(c2ccccc2F)CC1`, the “hERG current change (%, negative = inhibition) at 1uM” value is on record as 1.69%.
As to `O=[N+]([O-])c1cccc2ccc(N3CCOCC3)nc12`, the “hERG current change (%, negative = inhibition) at 1uM” value is given as 9.39%.
As to `C=C(C)C(=O)Nc1ccc(OC(F)(F)C(F)F)c(NC(=O)C(=C)C)c1`, the “hERG current change (%, negative = inhibition) at 1uM” value is on record as 11.4%.
As to `Cn1nccc1C(=O)N1CCN(S(=O)(=O)c2ccc(Br)s2)CC1`, the “hERG current change (%, negative = inhibition) at 1uM” value is given as 16.6%.
Turning to `N#Cc1nc(-c2ccco2)oc1NCc1cccnc1`, the “hERG current change (%, negative = inhibition) at 1uM” value is on record as -2.68%.
For `COc1ccc(CCNS(=O)(=O)c2ccc3c(c2)CCN3C(=O)C2CC2)cc1OC`, the “hERG current change (%, negative = inhibition) at 1uM” value came to 6.72%.
As to `COc1ccc(S(=O)(=O)Nc2ccc3ccccc3c2)cc1C`, the “hERG current change (%, negative = inhibition) at 1uM” value is given as -1.72%.
Next, `Fc1ccccc1CSc1nnc(-c2cccs2)o1`: -1.02%.

The record behind these values is publication PMC4336329 (PLoS ONE, 2015).
